Laboratory results as given in PubChem BioAssay AID493208 (National Center for Advancing Translational Sciences (NCATS), 2011).
Out of some 44,000 compounds screened, about 340 (0.77%) were called active. Another 5% or so got no clear call; they are omitted. Calls follow the shape of the dose curve; as a rule, active = well fitted inhibition curve with a large enough effect; inconclusive = small, poorly fitted or top-dose-only effect; inactive = flat fitted curve, though single readings scatter. The list shows a part of the results.

Experiment: Acumen qHTS Assay for Inhibitors of the mTORC1 Signaling Pathway in MEF (Tsc2-/-, p53-/-) Cells: Sytravon;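 also: plate controls were DMSO for no effect and rapamycin for full effect; nearly all actives have a fitted effect of over 50% in size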
Conditions: phospho-rpS6 immunofluorescence/PI, 24 h; series mostly up to 38.3 µM; activity change, negative = inhibition: at the top concentration
Procedure, shortened: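 Tsc2-/-, p53-/- MEFs (empty-vector stable line) in DMEM + 10% FBS were treated with compounds 24 h at 37 degree Celsius, fixed, and immunostained for phospho-rpS6 (Alexa-488) with propidium iodide counterstain. Laser-scanning cytometry gave % positive cells, normalized against 7.5 nM rapamycin and DMSO.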

Activity change, negative = inhibition, inactive:
COc1ccc(Cn2c(C(=O)O)c(CNCc3ccco3)c3ccc(OC)cc32)cc1 -0.0737%
COc1ccc(-n2cnc3cc(C(=O)NC4CCCC4)ccc32)cc1 -10.5%
CCOC(=O)c1ccc(NC(=O)CSc2nnc3c4ccccc4n(CC)c3n2)cc1 -1.25%
CN(C)c1ccc(CNC(=O)c2ccc(Cn3c(=O)c4cccn4c4cccnc43)cc2)cc1 -2.72%
CC(C)(C)c1ccc(C(=O)NCC(c2ccco2)S(=O)(=O)c2ccc(F)cc2)cc1 (stereo not drawn) -5.58%
CCc1ccc2ncc(C(=O)c3ccc(C)c(C)c3)c(N3CCC(C(N)=O)CC3)c2c1 -1.23%
COc1ccc(C2=Nc3ccc(F)cc3NC(c3cccc(C(F)(F)F)c3)=N2)cc1 3.65%
CCCOc1ccc(C(=O)N(Cc2ccccc2Cl)C2CCS(=O)(=O)C2)cc1 (stereo not drawn) -2.06%
Cc1ccc(Cn2c(CNC(=O)CCc3ccccc3)nc3cccnc32)cc1 -3.07%
Cc1cccc(N2CCN(Cc3nnc(-c4ccccc4C)o3)CC2C)c1 (stereo not drawn) -10.7%
COC(=O)c1ccccc1NC(=O)c1cnc(Nc2ccc(OC)cc2)c2ccccc12 5.03%
CCCCOc1cccc(C(=O)N(Cc2ccc(N(C)C)cc2)C2CCS(=O)(=O)C2)c1 (stereo not drawn) -1.62%
O=C(Cn1cnc(S(=O)(=O)N2CCCC2)c1)Nc1cccc(Br)c1 -17.7%
Cc1cc(-c2nc3ncccc3o2)ccc1NC(=O)c1ccccc1Br -7.62%
Cc1ccc(CCNC(=O)CCCn2c(=O)c3ccccc3n(Cc3ccccc3C)c2=O)cc1 -2.07%
O=C(COc1ccc(F)cc1)NCC(c1ccc(Cl)cc1)N1CCCCC1 (stereo not drawn) -6.12%
COc1ccc(CCNC(=O)Cn2c(=O)n(-c3ccccc3)c(=O)c3c(C)c(C)sc32)cc1OC 0.864%
CC(=O)N1c2ccc(S(=O)(=O)N3CCCCCC3)cc2CC1C(=O)NCc1ccccc1C (stereo not drawn) 4.26%
CC(=O)N1CCOc2cc(S(=O)(=O)NCc3ccc(F)cc3)c(C)cc21 -1.93%
COc1ccc(-n2nc(C(=O)N3CCN(c4ccccc4OC)CC3)c3c4ccccc4n(C)c3c2=O)cc1Cl 0.385%
COc1ccccc1CNC(=O)CCCN1C(=O)CSc2c1c(C)nn2-c1ccccc1 -0.0296%
CC(C)C1N=C2c3ccccc3N=C(SCC(=O)NCc3ccc(Cl)cc3)N2C1=O (stereo not drawn) 0%
O=C(Nc1ccc2c(c1)CCCN2C(=O)c1cccs1)c1ccccc1 0%
O=C(Cn1c(=O)n(Cc2ccccc2)c(=O)c2sc3ccccc3c21)Nc1ccccc1F 4.84%
O=C(NC1CCCc2ccccc21)c1ccc2c(c1)sc1nc(-c3ccccc3)cn12 (stereo not drawn) 8.04%
COc1cccc(Oc2nc(C)nc3c2oc2ccccc23)c1 -11.3%
Cc1c(C(=O)NCc2cccc(Cl)c2)sc2nc[nH]c(=O)c12 -14.4%
CCOc1ccccc1NC(=O)C1CCN(S(=O)(=O)c2cccs2)CC1 -2.13%
CC(CNC(=O)CCc1cn(Cc2ccccc2Cl)c2ccccc12)c1ccccc1 (stereo not drawn) -14.4%
CCOc1ccc(NC(=O)Cn2ccn3nc(-c4ccc(OC)c(OC)c4)cc3c2=O)cc1 0%
Cc1cc(C)cc(NC(=O)Nc2ccc3nc(N4CCN(C)CC4)cc(C)c3c2)c1 3.05%
CCCS(=O)(=O)c1nc(S(=O)(=O)c2ccc(C)cc2)c(NCc2ccccc2Cl)s1 -6.28%
Cc1nc(N2CCCC2)c2c(C(=O)Nc3cccc(Cl)c3)c(C)oc2n1 1.88%
CC1(C)CC(=O)c2cc(C#N)c(=O)n(-c3ccc(Cl)cc3)c2C1 1.19%
O=C(O)CCC(=O)Nc1sc2c(c1C(=O)Nc1ccccc1)CCCCC2 6.91%
COc1ccc(NC(=O)Cn2cc(C(=O)c3ccccc3)c(=O)c3cc(OC)ccc32)c(OC)c1 2.58%
CCc1ccc(NC(=O)c2ccc(F)c(S(=O)(=O)N3CCN(c4ccc(OC)cc4)CC3)c2)cc1 -12%
Cc1ccsc1CN(C(=O)c1ccc(OCC(C)C)cc1)C1CCS(=O)(=O)C1 (stereo not drawn) 5.68%
CCOC(=O)c1cccc(NS(=O)(=O)c2cc(-c3cnc(C4CC4)o3)ccc2C)c1 0%
Cc1c(C(=O)OC(C)C)sc(NC(=O)C2c3ccccc3Oc3ccccc32)c1C(=O)OC(C)C -2.47%
Cc1ccc(-n2c3nc(=O)[nH]c(=O)c-3cc3c(C)nn(-c4ccccc4)c32)cc1C -0.115%
CCOC(=O)c1c(S(=O)(=O)N2CCCC(C(=O)Nc3ccc(C)cn3)C2)c(C)n(C)c1C (stereo not drawn) 0.543%
Cc1cccc(NC(=O)CSc2nc3ccccc3nc2N2CCOCC2)c1C -7.58%
CC(=O)c1ccc(N2CCN(C(=O)CCCCn3c(=O)[nH]c4ccsc4c3=O)CC2)cc1 -0.0571%
CCOc1ccc(CNS(=O)(=O)c2cc3c(cc2C)NC(=O)CO3)cc1 -10.6%
O=C(Nc1cccc(C(F)(F)F)c1)c1cc(-c2ccc3c(c2)OCCO3)on1 -12.6%
CCSc1nnc(NC(=O)c2cc(=O)c3cc(C)c(C)cc3o2)s1 1.19%
COc1ccc(Cn2c(=O)c3cccnc3n(CC(=O)Nc3c(C)cc(C)cc3C)c2=O)cc1 0.473%
